Test results: patent publication US9975943B2, “Polypeptides” (AFFIBODY AB, priority 2013, dated 2018)

Assays:
human FcRn [1] = target: T1, human FcRn (Homo sapiens, UniProt P55899); assay: AlphaLISA blocking assay (IgG binding to FcRn); set-up: purchased Biorbyt orb84388; settings: 10 nM biotinylated human FcRn, pH 6.0
Protocol: The potential of Z variants to inhibit binding of IgG to FcRn was analyzed in an AlphaLISA assay with an EnSpire multiplate reader 2300 (Perkin Elmer). Human IgG (Roactemra) was immobilized on AlphaLISA acceptor beads (Perkin Elmer, cat. no. 6772002) according to the manufacturer's recommendations. Stepwise serial dilutions 1:3 of His-tagged Z variants to final concentrations of 250 nM to 38 pM were made in a 384-well plate (Perkin Elmer, cat. no. G6005350) and incubated for 45 min with 10 nM biotinylated human FcRn (Biorbyt, cat. no. orb84388; biotinylated essentially as described in Example 2) in AlphaLISA buffer (Perkin Elmer, cat. no. AL000F) adjusted to pH 6.0 using HCl. IgG-coated Acceptor beads were added to a final concentration of 10 μM and incubated for 45 min. Finally, streptavidin coated Donor beads (Perkin Elmer, cat. no. 6772002) were added to a final concentration of 40 μg/ml and incubated for 30 min. All incubations were performed at RT in the dark. The plate was analyzed in the EnSpire instrument and the IC50 values were calculated using GraphPad Prism 5.
The potential of Z variants to inhibit binding of IgG to FcRn was analyzed in the AlphaLISA assay described in Example 3.

human FcRn [2] = target: T1, human FcRn; assay: Biacore kinetic analysis of His6-tagged Z variants; assay type: binding; set-up: made in house; host or cells: human SKOV-3 cells, lentivirally transduced, secreted; purified on immobilized human IgG; settings: hFcRn, pH 6.0, Langmuir 1:1 model, approximate
Protocol: The interaction of FcRn binding His6-tagged Z variants with human FcRn was analyzed in a Biacore 2000 instrument (GE Healthcare). Human FcRn was immobilized in a flow cell on the carboxylated dextran layer of a CM5 chip surface (GE Healthcare). The immobilization was performed using amine coupling chemistry according to the manufacturer's protocol and using HBS-EP (GE Healthcare) as running buffer. One flow cell surface on the chip was activated and deactivated for use as blank during analyte injections. In the two binding experiments presented below, McIlvaines phosphate-citrate buffer pH 6.0 supplemented with 0.005% Tween-20 (0.005% PCT) was used as running buffer. In all experiments, a flow rate of 50 μl/min was used.
In another experiment, approximate kinetic constants (kon and koff) and affinities (KD) were determined for a subset of His6-tagged Z variants. Three concentrations of the Z variants were injected for 1 minute followed by dissociation in running buffer for 1 minute. The surfaces were equilibrated with running buffer during 7.5 minutes before the start of next cycle. […] Kinetic constants were calculated from the sensorgrams using the Langmuir 1:1 model of BiaEvaluation software 4.1 (GE Healthcare).

human FcRn [3] = target: T1, human FcRn; assay: ELISA KD titration analysis of Z-ABD variants from the maturation; assay type: binding; set-up: purchased Biorbyt orb84388; settings: Z-ABD variants in periplasm
Protocol: A selection of FcRn binders was subjected to an analysis of the response against a dilution series of biotinylated human FcRn using ELISA at both pH 6.0 and pH 7.4 as described above. […] As a background control, all Z variants were also assayed with no target protein added. […] Periplasm containing the ABD moiety only was used as a negative control. Data were analyzed using GraphPad Prism 5 and non-linear regression and KD values (the half maximal effective concentration) were calculated.

[4] = His6-tagged primary Z variants and dimers
[5] = maturated His6-tagged monomeric Z variants

| Substance | IC50 (human FcRn [1]; [5]) | Kd (human FcRn [3]; pH 6.0, read-out: KD pH 6.0) | Kd (human FcRn [3]; pH 7.4, read-out: KD pH 7.4) | also measured |
| --- | --- | --- | --- | --- |
| Z10111: FcRn binding Z variant, 58 amino acid residues, from phage display selection (VDAKYAKEDDTAAHEIRWLPNLTYEQRWAFIHKLYDDPSQSSELLSEAKKLNDSQAPK; Engineered FcRn binding polypeptide) |  |  |  | IC50 (human FcRn [1]; [4]): 46 nM |
| Z10140: FcRn binding Z variant, 58 amino acid residues, from phage display selection (VDAKYAKERSAAAHEIRWLPNLTFDQRVAFILKLTDDPSQSSELLSEAKKLNDSQAPK; Engineered FcRn binding polypeptide) |  |  |  | IC50 (human FcRn [1]; [4]): 56 nM; Kd (human FcRn [2]): 86 nM; koff (human FcRn [2]): 0.12 s⁻¹; kon (human FcRn [2]): 1.4e+06 M⁻¹ s⁻¹ |
| Z10156: FcRn binding Z variant, 58 amino acid residues, from phage display selection (VDAKYAKERTQASHEIRWLPNLTYDQRVAFINKLRDDPSQSSELLSEAKKLNDSQAPK; Engineered FcRn binding polypeptide) |  |  |  | Kd (human FcRn [2]): 370 nM; koff (human FcRn [2]): 0.28 s⁻¹; kon (human FcRn [2]): 760000 M⁻¹ s⁻¹ |
| Z10183: FcRn binding Z variant, 58 amino acid residues, from phage display selection (VDAKYAKEADNAGHEIRWLPNLTWAQRWAFIHKLLDDPSQSSELLSEAKKLNDSQAPK; Engineered FcRn binding polypeptide) |  |  |  | IC50 (human FcRn [1]; [4]): 39 nM; Kd (human FcRn [2]): 130 nM; koff (human FcRn [2]): 0.13 s⁻¹; kon (human FcRn [2]): 1e+06 M⁻¹ s⁻¹ |
| Z13578: FcRn binding Z variant from the maturated library (VDAKYAKEWTDAAHEIRWLPNLTFDQRVAFIHKLRDDPSQSSELLSEAKKLNDSQAPK; Engineered FcRn binding polypeptide) | 12 nM |  |  |  |
| Z13583: FcRn binding Z variant from the maturated library (VDAKYAKELEKAGHEIRWLPNLTFDQRVAFIHKLRDDPSQSSELLSEAKKLNDSQAPK; Engineered FcRn binding polypeptide) | 2.7 nM |  |  |  |
| Z13592: FcRn binding Z variant from the maturated library (VDAKYAKEVDIAAHEIRWLPNLTFDQRVAFIHKLRDDPSQSSELLSEAKKLNDSQAPK; Engineered FcRn binding polypeptide) | 6.4 nM |  |  |  |
| Z13616: FcRn binding Z variant from the maturated library (VDAKYAKEWQQAAHEIRWLPNLTFDQRVAFIHKLRDDPSQSSELLSEAKKLNDSQAPK; Engineered FcRn binding polypeptide) | 7.4 nM |  |  |  |
| Z13654: FcRn binding Z variant from the maturated library (VDAKYAKELEAAKHEIRWLPNLTFDQRVAFIHKLDDDPSQSSELLSEAKKLNDSQAPK; Engineered FcRn binding polypeptide) | 3.5 nM |  |  |  |
| Z13669: FcRn binding Z variant from the maturated library (VDAKYAKELASAGHEIRWLPNLTFDQRVAFIHKLRDDPSQSSELLSEAKKLNDSQAPK; Engineered FcRn binding polypeptide) | 5.2 nM |  |  |  |
| Z13674: FcRn binding Z variant from the maturated library (VDAKYAKEIEDAGHEIRWLPNLTFDQRVAFIHKLRDDPSQSSELLSEAKKLNDSQAPK; Engineered FcRn binding polypeptide) | 2.5 nM |  |  |  |
| Z13675: FcRn binding Z variant from the maturated library (VDAKYAKENQAAAHEIRWLPNLTFDQRVAFIHKLRDDPSQSSELLSEAKKLNDSQAPK; Engineered FcRn binding polypeptide) | 8.2 nM |  |  |  |
| Z13808: FcRn binding Z variant from the maturated library (VDAKYAKETANAAHEIRWLPNLTFDQRVAFIHKLRDDPSQSSELLSEAKKLNDSQAPK; Engineered FcRn binding polypeptide) |  | 2.4 nM | 5.5 nM |  |
| Z13823: FcRn binding Z variant from the maturated library (VDAKYAKEHDDAAHEIRWLPNLTFDQRVAFIHKLRDDPSQSSELLSEAKKLNDSQAPK; Engineered FcRn binding polypeptide) |  | 2.9 nM | 3.8 nM |  |
| Z13824: FcRn binding Z variant from the maturated library (VDAKYAKEWYSAAHEIRWLPNLTFDQRVAFIHKLRDDPSQSSELLSEAKKLNDSQAPK; Engineered FcRn binding polypeptide) |  | 1.9 nM | 3.8 nM |  |
| Z13838: FcRn binding Z variant from the maturated library (VDAKYAKEISDAAHEIRWLPNLTFDQRVAFIHKLRDDPSQSSELLSEAKKLNDSQAPK; Engineered FcRn binding polypeptide) |  | 2.6 nM | 5.4 nM |  |
| Z13842: FcRn binding Z variant from the maturated library (VDAKYAKEISQAAHEIRWLPNLTFDQRVAFIHKLRDDPSQSSELLSEAKKLNDSQAPK; Engineered FcRn binding polypeptide) |  | 2.2 nM | 5.5 nM |  |
| Z13845: FcRn binding Z variant from the maturated library (VDAKYAKENDDAAHEIRWLPNLTFDQRVAFIHKLRDDPSQSSELLSEAKKLNDSQAPK; Engineered FcRn binding polypeptide) |  | 2.6 nM | 4.2 nM |  |
| Z13846: FcRn binding Z variant from the maturated library (VDAKYAKESEIAGHEIRWLPNLTFDQRVAFIRKLRDDPSQSSELLSEAKKLNDSQAPK; Engineered FcRn binding polypeptide) |  | 2.3 nM | 4.3 nM |  |
| Z13860: FcRn binding Z variant from the maturated library (VDAKYAKEISDAKHEIRWLPNLTFDQRVAFIHKLDDDPSQSSELLSEAKKLNDSQAPK; Engineered FcRn binding polypeptide) |  | 2.3 nM | 8.7 nM |  |
| Z13865: FcRn binding Z variant from the maturated library (VDAKYAKEHLNAAHEIRWLPNLTFDQRVAFIHKLRDDPSQSSELLSEAKKLNDSQAPK; Engineered FcRn binding polypeptide) |  | 2.5 nM | 5.6 nM |  |
| Z13866: FcRn binding Z variant from the maturated library (VDAKYAKEWLDAAHEIRWLPNLTFDQRVAFIHKLRDDPSQSSELLSEAKKLNDSQAPK; Engineered FcRn binding polypeptide) |  | 2 nM | 2.8 nM |  |
| Z13875: FcRn binding Z variant from the maturated library (VDAKYAKENAAAAHEIRWLPNLTFDQRVAFIHKLRDDPSQSSELLSEAKKLNDSQAPK; Engineered FcRn binding polypeptide) |  | 2 nM | 3.4 nM |  |
| Z13993: FcRn binding Z variant, 58 amino acid residues, from phage display selection (VDAKYAKEAGRAAHEIRWLPNLTWDQRVAFIWKLRDDPSQSSELLSEAKKLNDSQAPK; Engineered FcRn binding polypeptide) |  |  |  | IC50 (human FcRn [1]; [4]): 130 nM |
